Assay results as given in patent US11420968B2 (priority 2018, dated 2022).
Like-named read-outs stand apart in the source and are kept apart here.

Tested on: Molt-4 cells
Assay: cells
Conditions: Homo sapiens
[1] = MOLT-4, read-out: Celluclar activity (IC50, nM) Molt-4
[2] = MOLT-4, read-out: Cellular activity (IC50, nM) Molt-4

SMILES | IC50 [1] | IC50 [2]
O=C(NS(=O)(=O)c1ccc(NC[C@@H]2COCCO2)c([N+](=O)[O-])c1)c1ccc(C2=CCC(N3CCC[C@H]3c3ccccc3C3CC3)CC2)cc1Oc1cnc2[nH]ccc2c1 (single isomer, unassigned) [Example G9-a, (R or S)—N-((4-((((R)-1,4-dioxan-2-yl)methyl)amino)-3-nitrophenyl)sulfonyl)-3-((1H-pyrrolo[2,3-b]pyridin-5-yl)oxy)-4′-((S)-2-(2-cyclopropylphenyl)pyrrolidin-1-yl)-2′,3′,4′,5′-tetrahydro-[1,1′-biphenyl]-4-carboxamide] | > 10000 nM | > 10000 nM
O=C(NS(=O)(=O)c1ccc(NCC2CCOCC2)c([N+](=O)[O-])c1)c1ccc(-c2ccc(N3CCCC3c3ccccc3C3CCNCC3)cc2)cc1Oc1cnc2[nH]ccc2c1 (stereo not drawn) [Example A99, 3-((1H-pyrrolo[2,3-b]pyridin-5-yl)oxy)-N-((3-nitro-4-(((tetrahydro-2H-pyran-4-yl)methyl)amino)phenyl)sulfonyl)-4′-(2-(2-(piperidin-4-yl)phenyl)pyrrolidin-1-yl)-[1,1′-biphenyl]-4-carboxamide] |  | > 10000 nM
CC(=O)N(C)CCN1CCC(c2ccccc2[C@H]2CCCN2c2ccc(-c3ccc(C(=O)NS(=O)(=O)c4ccc(NCC5CCOCC5)c([N+](=O)[O-])c4)c(Oc4cnc5[nH]ccc5c4)c3)cc2)CC1 [Example A105, (R)-3-((1H-pyrrolo[2,3-b]pyridin-5-yl)oxy)-4′-(2-(2-(1-(2-(N-methylacetamido)ethyl)piperidin-4-yl)phenyl)pyrrolidin-1-yl)-N-((3-nitro-4-(((tetrahydro-2H-pyran-4-yl)methyl)amino)phenyl)sulfonyl)-[1,1′-biphenyl]-4-carboxamide] |  | 4000 nM
CN1CCN(Cc2ccccc2[C@H]2CCCN2c2ccc(-c3ccc(C(=O)NS(=O)(=O)c4ccc(NCC5CCOCC5)c([N+](=O)[O-])c4)c(Oc4cnc5[nH]ccc5c4)c3)cc2)CC1 [Example A114, (R)-3-((1H-pyrrolo[2,3-b]pyridin-5-yl)oxy)-4′-(2-(2-((4-methylpiperazin-1-yl)methyl)phenyl)pyrrolidin-1-yl)-N-((3-nitro-4-(((tetrahydro-2H-pyran-4-yl)methyl)amino)phenyl)sulfonyl)-[1,1′-biphenyl]-4-carboxamide] |  | 589 nM
O=C(NS(=O)(=O)c1ccc(NCC2CCOCC2)c([N+](=O)[O-])c1)c1ccc(-c2ccc(N3CCCC3c3ccccc3N3CCNCC3)cc2)cc1Oc1cnc2[nH]ccc2c1 (stereo not drawn) [Example A120, 3-((1H-pyrrolo[2,3-b]pyridin-5-yl)oxy)-N-((3-nitro-4-(((tetrahydro-2H-pyran-4-yl)methyl)amino)phenyl)sulfonyl)-4′-(2-(2-(piperazin-1-yl)phenyl)pyrrolidin-1-yl)-[1,1′-biphenyl]-4-carboxamide] |  | > 10000 nM
CN(C)CCNc1ccc(C2CC2)c(C2CCCN2C2CC=C(c3ccc(C(=O)NS(=O)(=O)c4ccc(NCC5CCOCC5)c([N+](=O)[O-])c4)c(Oc4cnc5[nH]ccc5c4)c3)CC2)c1 (stereo not drawn) [Example C172, 3-((1H-pyrrolo[2,3-b]pyridin-5-yl)oxy)-4′-(2-(2-cyclopropyl-5-((2-(dimethylamino)ethyl)amino)phenyl)pyrrolidin-1-yl)-N-((3-nitro-4-(((tetrahydro-2H-pyran-4-yl)methyl)amino)phenyl)sulfonyl)-2′,3′,4′,5′-tetrahydro-[1,1′-biphenyl]-4-carboxamide] |  | > 10000 nM
O=C(NS(=O)(=O)c1ccc(NCC2CCOCC2)c([N+](=O)[O-])c1)c1ccc(N2CCC3(CCC(N4CCC[C@H]4c4ccccc4C4CC4)CC3)CC2)cc1Oc1cnc2[nH]ccc2c1 [Example F32, (S)-2-((1H-pyrrolo[2,3-b]pyridin-5-yl)oxy)-4-(9-(2-(2-cyclopropylphenyl)pyrrolidin-1-yl)-3-azaspiro[5.5]undecan-3-yl)-N-((3-nitro-4-(((tetrahydro-2H-pyran-4-yl)methyl)amino)phenyl)sulfonyl)benzamide] |  | 7040 nM
O=C(NS(=O)(=O)c1ccc(NC[C@H]2COCCO2)c([N+](=O)[O-])c1)c1ccc(N2CCC3(CC2)CC(N2CCC[C@H]2c2ccccc2C2CC2)C3)cc1Oc1cnc2[nH]ccc2c1 [Example F37, N-((4-((((S)-1,4-dioxan-2-yl)methyl)amino)-3-nitrophenyl)sulfonyl)-2-((1H-pyrrolo[2,3b]pyridin-5-yl)oxy)-4-(2-((S)-2-(2-cyclopropylphenyl)pyrrolidin-1-yl)-7-azaspiro[3.5]nonan-7-yl) benzamide] | 1440 nM | 1440 nM
O=C(NS(=O)(=O)c1ccc(NC[C@@H]2COCCO2)c([N+](=O)[O-])c1)c1ccc(N2CCC3(CC2)CC(N2CCC[C@H]2c2ccccc2C2CC2)C3)cc1Oc1cnc2[nH]ccc2c1 [Example F38, N-((4-((((R)-1,4-dioxan-2-yl)methyl)amino)-3-nitrophenyl)sulfonyl)-2-((1H-pyrrolo[2,3-b]pyridin-5-yl)oxy)-4-(2-((S)-2-(2-cyclopropylphenyl)pyrrolidin-1-yl)-7-azaspiro[3.5]nonan-7-yl)benzamide] | 1740 nM | 1740 nM
CCc1ccccc1[C@@H]1CCCN1C1CC2(CCN(c3ccc(C(=O)NS(=O)(=O)c4ccc(NC[C@H]5COCCO5)c([N+](=O)[O-])c4)c(Oc4cnc5[nH]ccc5c4)c3)CC2)C1 [Example F40, N-((4-((((S)-1,4-dioxan-2-yl)methyl)amino)-3-nitrophenyl)sulfonyl)-2-((1H-pyrrolo[2,3-b]pyridin-5-yl)oxy)-4-(2-((S)-2-(2-ethylphenyl)pyrrolidin-1-yl)-7-azaspiro[3.5]nonan-7-yl)benzamide] | 2700 nM | 2700 nM
CCc1ccccc1[C@@H]1CCCN1C1CC2(CCN(c3ccc(C(=O)NS(=O)(=O)c4ccc(NC[C@@H]5COCCO5)c([N+](=O)[O-])c4)c(Oc4cnc5[nH]ccc5c4)c3)CC2)C1 [Example F41, N-((4-((((R) 1,4-dioxan-2-yl)methyl)amino)-3-nitrophenyl)sulfonyl)-2-((1H-pyrrolo[2,3-b]pyridin-5-yl)oxy)-4-(2-((S)-2-(2-ethylphenyl)pyrrolidin-1-yl)-7-azaspiro[3.5]nonan-7-yl) benzamide] | 4300 nM | 4300 nM
O=C(NS(=O)(=O)c1ccc(NCC2CCOCC2)c([N+](=O)[O-])c1)c1ccc(N2CCC3(CC2)CC(N2CCCC2c2cc(C4CC4)ccc2C2CC2)C3)cc1Oc1cnc2[nH]ccc2c1 (stereo not drawn) [Example F76, 2-((1H-pyrrolo[2,3-b]pyridin-5-yl)oxy)-4-(2-(2-(2,5-dicyclopropylphenyl)pyrrolidin-1-yl)-7-azaspiro[3.5]nonan-7-yl)-N-((3-nitro-4-(((tetrahydro-2H-pyran-4-yl)methyl)amino)phenyl)sulfonyl)benzamide] |  | > 10000 nM
C[C@]1(O)CC[C@H](CNc2ccc(S(=O)(=O)NC(=O)c3ccc(N4CC5(CC(N6CCC[C@H]6c6ccccc6C6CC6)C5)C4)cc3Oc3cnc4[nH]ccc4c3)cc2[N+](=O)[O-])CC1 [Example F106, 2-((1H-pyrrolo[2,3-b]pyridin-5-yl)oxy)-4-(6-((S)-2-(2-cyclopropylphenyl)pyrrolidin-1-yl)-2-azaspiro[3.3]heptan-2-yl)-N-((4-((((1r,4r)-4-hydroxy-4-methylcyclohexyl)methyl)amino)-3-nitrophenyl)sulfonyl)benzamide] | 1210 nM | 1210 nM
O=C(NS(=O)(=O)c1ccc(NC[C@H]2COCCO2)c([N+](=O)[O-])c1)c1ccc(C2=CCC(N3CCCC3c3ccccc3C3CC3)CC2)cc1Oc1cnc2[nH]ccc2c1 (stereo partly drawn) [Example G8, N-((4-((((S)-1,4-dioxan-2-yl)methyl)amino)-3-nitrophenyl)sulfonyl)-3-((1H-pyrrolo[2,3-b]pyridin-5-yl)oxy)-4′-(2-(2-cyclopropylphenyl)pyrrolidin-1-yl)-2′,3′,4′,5′-tetrahydro-[1,1′-biphenyl]-4-carboxamide] |  | > 10000 nM
O=C(NS(=O)(=O)c1ccc(NC[C@H]2COCCO2)c([N+](=O)[O-])c1)c1ccc(C2=CCC(N3CCC[C@H]3c3ccccc3C3CC3)CC2)cc1Oc1cnc2[nH]ccc2c1 (stereo partly drawn) [Example G8-S, N-((4-((((S)-1,4-dioxan-2-yl)methyl)amino)-3-nitrophenyl)sulfonyl)-3-((1H-pyrrolo[2,3-b]pyridin-5-yl)oxy)-4′-((S)-2-(2-cyclopropylphenyl)pyrrolidin-1-yl)-2′,3′,4′,5′-tetrahydro-[1,1′-biphenyl]-4-carboxamide] |  | 2460 nM
O=C(NS(=O)(=O)c1ccc(NC[C@@H]2COCCO2)c([N+](=O)[O-])c1)c1ccc(C2=CCC(N3CCCC3c3ccccc3C3CC3)CC2)cc1Oc1cnc2[nH]ccc2c1 (stereo partly drawn) [Example G9, N-((4-((((R)-1,4-dioxan-2-yl)methyl)amino)-3-nitrophenyl)sulfonyl)-3-((1H-pyrrolo[2,3-b]pyridin-5-yl)oxy)-4′-(2-(2-cyclopropylphenyl)pyrrolidin-1-yl)-2′,3′,4′,5′-tetrahydro-[1,1′-biphenyl]-4-carboxamide] |  | 4470 nM
CC1(O)CCC(CNc2ccc(S(=O)(=O)NC(=O)c3ccc(C4=CCC(N5CCCC5c5ccccc5C5CC5)CC4)cc3Oc3cnc4[nH]ccc4c3)cc2[N+](=O)[O-])CC1 (stereo not drawn) [Example G24b, (trans- or cis-)-3-((1H-pyrrolo[2,3-b]pyridin-5-yl)oxy)-4′-(2-(2 cyclopropylphenyl)pyrrolidin-1-yl)-N-((4-(((4-hydroxy-4-methylcyclohexyl)methyl)amino)-3-nitrophenyl)sulfonyl)-2′,3′,4′,5′-tetrahydro-[1,1′-biphenyl]-4-carboxamide] |  | > 10000 nM
O=C(NS(=O)(=O)c1ccc(OCC2(F)CCN(C3COC3)CC2)c([N+](=O)[O-])c1)c1ccc(-c2ccc(N3CCC[C@@H]3c3ccccc3C3CC3)cc2)cc1Oc1cnc2[nH]ccc2c1 [Example G97-R, (R)-3-((1H-pyrrolo[2,3-b]pyridin-5-yl)oxy)-4′-(2-(2-cyclopropylphenyl)pyrrolidin-1-yl)-N-((4-((4-fluoro-1-(oxetan-3-yl)piperidin-4-yl)methoxy)-3-nitrophenyl)sulfonyl)[1,1′-biphenyl]-4-carboxamide] |  | 434 nM
